{
  "source": "PubChem BioAssay AID624296",
  "about": "(National Center for Advancing Translational Sciences (NCATS), 2012)",
  "note": "Values joined by “and” are separate entries in the source; they are usually repeats but may differ in a detail not shown here. Equal entries are not always repeated. Among all 350,000 compounds or so, about 9,900 (2.8%) were called active. The inconclusive results got no clear call from the source; some entries with a clear call stand among them for comparison. The call rests on the fitted dose curve; in most records, active means well fitted activation curve with a large enough effect; inconclusive means small, poorly fitted or top-dose-only effect; inactive means no such curve, though single readings can be large or run the other way. Where the call is inconclusive, the potency comes from a doubtful curve fit. Potency means the concentration at half of the fitted maximal effect; tags describe the fitted curve by direction and shape.",
  "data": [
    {"assay": "A quantitative high throughput screen for small molecules that induce DNA re-replication in MCF 10a normal breast cells; further: nearly all actives have a fitted effect of over 50% in size.", "details": "MCF 10A DNA re-replication, Hoechst nuclear intensity, 48 h; series mostly up to 46.1 µM", "values": [
      {"smiles": "C/C(=N/NC(=O)c1cccc(N2CCCC2=O)c1)c1ccncc1", "Potency": "inactive"},
      {"smiles": "CC/C(=C(\\c1ccccc1)c1ccc(OCCN(C)C)cc1)c1ccccc1", "Potency": "inconclusive: 11.9 µM [activator, partial curve] and inconclusive: 23.1 µM [activator, single point] and inconclusive: 13 µM [activator, single point]"},
      {"smiles": "CCOC(=O)/C(=C/c1ccc(OC(F)F)cc1)C1=Nn2c(nnc2-c2ccc(Cl)cc2)SC1", "Potency": "active: 3.66 µM"},
      {"smiles": "CN(C)CCc1c[nH]c2ccc(CC3COC(=O)N3)cc12", "note": "(configuration not stated)", "Potency": "inactive"},
      {"smiles": "COc1ccc(/C=C/C(=O)c2ccccc2O)cc1CN1CCOCC1", "Potency": "inconclusive: 16.4 µM [activator, single point]"},
      {"smiles": "O=S(=O)(CC(CN1CCCCC1)N1CCCCC1)c1ccc2ccccc2c1", "note": "(configuration not stated)", "Potency": "inconclusive: 2.31 µM [activator, full curve, poor fit]"},
      {"smiles": "Cc1cc(C(=O)CCl)c(C)n1Cc1ccco1", "Potency": "inconclusive: 20.6 µM [activator, single point]"},
      {"smiles": "CCOC(=O)c1sc2nc(-c3cccnc3)ccc2c1N", "Potency": "inconclusive: 29.1 µM [activator, single point]"},
      {"smiles": "NC(=O)c1ccc(NC(=O)C#Cc2ccccc2)cc1", "Potency": "inconclusive: 29.1 µM [activator, single point]"},
      {"smiles": "COc1cc(C(=S)N2CCN(C)CC2)ccc1OCC(=O)NCc1ccccc1", "Potency": "inactive"},
      {"smiles": "CC(=O)N1CCN(S(=O)(=O)c2cccc(C(=O)NNC(=O)COc3ccc(Cl)cc3C)c2)CC1", "Potency": "inactive"},
      {"smiles": "OC(COCC1CC=CCC1)Cn1cnc2ccccc21", "note": "(configuration not stated)", "Potency": "inactive"},
      {"smiles": "O=C(N/N=C/c1ccc2c(c1)OCO2)c1cc(-c2ccccc2)nc2ccccc12", "Potency": "inconclusive: 20.6 µM [activator, single point]"},
      {"smiles": "CCc1oc2ccccc2c1C(=O)c1cc(Br)c(O)c(Br)c1", "Potency": "active: 2.99 µM and active: 1.84 µM and active: 7.31 µM"},
      {"smiles": "COc1cccc2[nH]c3c(N4CCC5(CC4)OCCO5)ncnc3c12", "Potency": "inactive"},
      {"smiles": "COc1ccc(-c2[nH]c(-c3ccc(C)cc3)nc2SCC(=O)Nc2nccs2)cc1", "Potency": "inconclusive: 29.1 µM [activator, single point]"},
      {"smiles": "Fc1ccccc1-c1csc(=Nc2cccnc2)n1CC1CCCO1", "note": "(configuration not stated)", "Potency": "inconclusive: 7.31 µM [activator, partial curve]"},
      {"smiles": "Cc1ccc(S(=O)(=O)N2CCN(Cc3ccccc3)CC2)c(C)c1N(C)S(=O)(=O)c1ccccc1", "Potency": "inconclusive: 6.51 µM [activator, partial curve]"},
      {"smiles": "COc1ccc(OCC(=O)Nc2ccc(OC)c(S(=O)(=O)N3CCCCC3)c2)cc1", "Potency": "inconclusive: 2.06 µM [activator, partial curve, poor fit]"},
      {"smiles": "O=C(NCCc1ccccc1)c1ccc2nc3cc(Cl)ccc3c(=O)n2c1", "Potency": "inconclusive: 4.61 µM [activator, single point]"},
      {"smiles": "CCOc1ccc(C2OCCC(C)O2)cc1OC", "note": "(configuration not stated)", "Potency": "inactive"},
      {"smiles": "CN1C(=O)CC(Nc2cccc3cccc(N)c23)C1=O", "note": "(configuration not stated)", "Potency": "inconclusive: 25.9 µM [activator, single point]"},
      {"smiles": "CCCn1c(C)cc(C(=O)COc2ccc(C)nc2[N+](=O)[O-])c1C", "Potency": "inconclusive: 29.1 µM [activator, single point]"},
      {"smiles": "CCn1c(-c2ccc[nH]c2=O)nc2ccccc21", "Potency": "inactive"},
      {"smiles": "N#Cc1ccc(C(=O)NCCCSc2ccccc2)cc1", "Potency": "inactive"},
      {"smiles": "O=C(Oc1ccccc1)c1ccc(COC(=O)c2cnccn2)cc1", "Potency": "inactive"},
      {"smiles": "COc1ccc(OC)c(N/C=C/C(=C(C#N)C#N)N(C)C)c1", "Potency": "inactive"},
      {"smiles": "Cc1cccc(C)c1OCc1nnc2c3cnn(C)c3ncn12", "Potency": "inactive"},
      {"smiles": "Cc1nc2c(=O)n(C)c(=O)n(C)c2nc1Cl", "Potency": "active: 1.84 µM"},
      {"smiles": "Cc1ccccc1C(=O)Nc1ccc2c(c1)OCCO2", "Potency": "inactive"},
      {"smiles": "COc1nc(-c2ccccc2)ccc1-c1noc(-c2ccccc2)n1", "Potency": "inactive"},
      {"smiles": "COc1cc(OC)cc(C(=O)Nc2ccc3c(c2)CCCN3C(=O)c2cccs2)c1", "Potency": "inconclusive: 32.6 µM [activator, partial curve, poor fit]"},
      {"smiles": "COc1ccc(C(C)=O)cc1CSc1nnc(Nc2ccccc2)s1", "Potency": "inactive"},
      {"smiles": "O=c1nc(-c2ccccc2)c2cc(Br)ccc2[nH]1", "Potency": "inactive"},
      {"smiles": "COc1ccc(-n2cc(-c3ccccc3)[nH]c2=S)c(OC)c1", "Potency": "active: 16.4 µM"},
      {"smiles": "O=[N+]([O-])c1ccc(S(=O)(=O)N2CCN(C3CCN(Cc4ccccc4)CC3)CC2)cc1", "Potency": "inconclusive: 16.4 µM [activator, single point]"},
      {"smiles": "O=C(NCCCN1CCOCC1)C1CCN(S(=O)(=O)c2cccc(Cl)c2Cl)CC1", "Potency": "inconclusive: 4.11 µM [activator, full curve, poor fit]"},
      {"smiles": "Cc1c(NC(=O)COC(=O)C23CC4CC(CC(O)(C4)C2)C3)c(=O)n(-c2ccccc2)n1C", "Potency": "inactive"},
      {"smiles": "COc1ccc(-c2ccc(SC)nn2)cc1", "Potency": "inactive"},
      {"smiles": "COc1ccc2sc(-c3ccc(S(C)(=O)=O)cc3)c(C#Cc3cncn3C)c2c1", "Potency": "inconclusive: 11.6 µM [activator, partial curve, poor fit]"},
      {"smiles": "OCCCCNCc1ccc(OCc2ccccc2)cc1", "Potency": "inconclusive: 16.4 µM [activator, partial curve, poor fit]"},
      {"smiles": "COc1cccc(C(=O)NCCS(=O)(=O)N2CCc3ccccc3C2)c1", "Potency": "inactive"},
      {"smiles": "O=C(/C=C/c1c(Cl)nc2ccccn12)Nc1ccc(F)cc1", "Potency": "inactive"},
      {"smiles": "CCOC(=O)c1c(-c2cccc(C)c2)csc1NC(=O)c1c(-c2ccccc2)noc1C", "Potency": "inconclusive: 25.9 µM [activator, partial curve, poor fit]"},
      {"smiles": "CC(C)(C)c1ccc(OCC(=O)NN2Cc3ccccc3C2=N)cc1", "Potency": "inconclusive: 10.3 µM [activator, partial curve, poor fit]"},
      {"smiles": "CCCC(=O)Nc1ccc(NC(=O)c2cccc(OC)c2)cn1", "Potency": "inconclusive: 29.1 µM [activator, single point]"},
      {"smiles": "CSCC(=O)N1CCc2ccc(NC(=O)c3ccccc3Cl)cc2C1", "Potency": "inconclusive: 16.4 µM [activator, single point]"}
    ]}
  ]
}
